Among all 390,000 compounds or so, about 4,700 (1.2%) were called active. The inconclusive results got no clear call from the source; some entries with a clear call stand among them for comparison. Calls follow the shape of the dose curve; as a rule, active = well fitted inhibition curve with a large enough effect; inconclusive = small, poorly fitted or top-dose-only effect, or another doubt; inactive = no such curve, though single readings can be large or run the other way. Potencies beside an inconclusive call are fits to weak or partial responses and may not hold up.
What follows are compounds tested against DNA polymerase eta (Homo sapiens) (UniProt Q9Y253) (assay: qHTS for Inhibitors of Polymerase Eta). Conditions: recombinant Pol eta, fluorescent DNA replication assay; series mostly up to 114 µM; activity change, negative = inhibition: at the top concentration.
UniProt Q9Y253, sequence (Q9Y253 whole entry, looked up): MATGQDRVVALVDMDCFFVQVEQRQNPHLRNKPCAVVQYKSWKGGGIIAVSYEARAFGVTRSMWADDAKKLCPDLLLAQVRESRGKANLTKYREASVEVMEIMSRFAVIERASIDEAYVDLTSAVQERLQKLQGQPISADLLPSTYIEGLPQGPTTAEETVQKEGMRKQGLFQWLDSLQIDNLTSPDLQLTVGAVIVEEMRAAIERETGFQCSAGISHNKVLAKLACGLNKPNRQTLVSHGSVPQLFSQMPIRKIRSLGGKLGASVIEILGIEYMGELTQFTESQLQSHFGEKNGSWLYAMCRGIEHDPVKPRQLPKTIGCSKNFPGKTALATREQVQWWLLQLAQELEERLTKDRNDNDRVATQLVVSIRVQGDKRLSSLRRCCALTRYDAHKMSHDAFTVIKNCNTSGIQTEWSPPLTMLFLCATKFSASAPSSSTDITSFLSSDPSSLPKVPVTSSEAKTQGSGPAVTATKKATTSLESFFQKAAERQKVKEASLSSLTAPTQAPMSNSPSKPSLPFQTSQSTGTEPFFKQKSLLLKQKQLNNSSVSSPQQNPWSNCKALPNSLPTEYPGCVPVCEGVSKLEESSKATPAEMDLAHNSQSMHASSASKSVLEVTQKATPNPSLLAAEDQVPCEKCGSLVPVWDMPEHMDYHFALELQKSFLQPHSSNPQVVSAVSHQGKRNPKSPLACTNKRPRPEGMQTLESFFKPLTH
In short: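 Pol eta at 10 nM preincubated with compounds 15 min at room temperature; reaction started with fluorescent substrate (50 nM final) and read kinetically at 0 and 10 min.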
COc1ccc2nc(N3C(=O)/C(=C/c4ccccc4)NC3=S)sc2c1 was tested, and the Potency was active: 31.6 µM.
With Cc1ccccc1CSc1nnc(NC(=O)Cc2cccs2)s1 the Potency was inconclusive: 79.4 µM [inhibitor, partial curve].
With Nc1nc(N)c2[nH]c(-c3ccccc3)nc2n1 the Potency was inconclusive: 0.794 µM [inhibitor, partial curve, poor fit].
In the case of Clc1ccc(OCCSCc2nc3ccccc3[nH]2)cc1, the Potency is reported as inconclusive: 10 µM [inhibitor, full curve, poor fit].
In the case of O=C1N=C2N(CCN3CCCCC3)c3ccccc3N2/C1=C\c1ccc([N+](=O)[O-])s1, the Potency is reported as inconclusive: 100 µM [inhibitor, partial curve, poor fit].
O=C(NCc1ccc2c(c1)OCO2)c1cc2c(s1)CSC2 was tested, and the Potency was inconclusive: 31.6 µM [inhibitor, full curve].
With c1ccc(-c2cn3c(n2)-c2ccccc2C3)cc1 the Potency was inconclusive: 100 µM [inhibitor, partial curve, poor fit].
With O=C(O)c1ccccc1Sc1ncnc2sccc12 the Potency was inconclusive: 50.1 µM [inhibitor, partial curve, poor fit].
With COc1ccccc1OCCCSc1nc(-c2ccc(C(C)(C)C)cc2)nc2cc(=O)[nH]n12 the Potency was active: 79.4 µM.
For CN(c1ccc(OCC(=O)Nc2cc(Cl)ccc2C(=O)O)cc1)S(=O)(=O)c1ccc(F)cc1, the Potency was inconclusive: 14.1 µM [inhibitor, full curve, poor fit].
With NC(=O)CSc1nc2cc([N+](=O)[O-])ccc2n1-c1cccc(C(F)(F)F)c1 the Potency was inconclusive: 89.1 µM [inhibitor, partial curve, poor fit].
With O=C(NCc1ccco1)/C(=C\c1cccs1)NC(=O)c1ccsc1 the Potency was inconclusive: 22.4 µM [inhibitor, single point].
For Cc1cccc(OCc2nnc(SCC(=O)N3CCCCC3)o2)c1, the Potency was inconclusive: 89.1 µM [inhibitor, partial curve, poor fit].
For Cc1c(Br)c([N+](=O)[O-])nn1CC(=O)N(C)Cc1ccccc1, the Potency was inconclusive: 79.4 µM [inhibitor, partial curve, poor fit].
In the case of COc1cc(/C=N/NC(=O)c2ccc(=O)[nH]n2)ccc1O, the Potency is reported as inconclusive: 31.6 µM [inhibitor, partial curve, poor fit].
In the case of CC(C)CNC(=O)NC(=O)COc1c(F)c(F)cc(F)c1F, the Potency is reported as inconclusive: 89.1 µM [inhibitor, partial curve, poor fit].
In the case of O=C(COC(=O)c1cc(Cl)cc(Cl)c1)NCc1ccco1, the Potency is reported as active: 56.2 µM.
COc1ccc(-c2cn3nc(N4CCCC(C(=O)Nc5cc(C)ccc5C)C4)sc3n2)cc1 (centres undefined) was tested, and the Potency was inconclusive: 79.4 µM [inhibitor, partial curve].
In the case of Cc1onc(-c2c(Cl)cccc2Cl)c1C(=O)OCC(=O)c1ccccc1, the Potency is reported as inconclusive: 100 µM [inhibitor, partial curve, poor fit].
CN1CCN(C(CNC(=O)c2ccccc2F)c2ccc3c(c2)OCO3)CC1 (centres undefined) was tested, and the Potency was inconclusive: 79.4 µM [inhibitor, partial curve, poor fit].
With COc1cc(C(=O)Nc2ccc(C)c(S(=O)(=O)N(C)C)c2)ccc1OCC(=O)N1CCOCC1 the Potency was inconclusive: 20 µM [inhibitor, full curve, poor fit].
In the case of CCOc1cc(/C=C2\SC(=S)N(C(C(=O)O)c3ccccc3)C2=O)ccc1O (centres undefined), the Potency is reported as inconclusive: 50.1 µM [inhibitor, partial curve].
With CCc1ccc(C(=O)c2cnc3ccc(F)cc3c2S(=O)(=O)c2ccccc2)cc1 the “activity change, negative = inhibition” value was inactive: -4.76%.
With NS(=O)(=O)c1ccc(NC(=O)c2ccc(-c3ccccc3)cc2)cc1 the Potency was inconclusive: 56.2 µM [inhibitor, partial curve, poor fit].
With COc1ccc(S(=O)(=O)N2CCCOC2CNC(=O)C(=O)NCCc2ccco2)cc1OC (centres undefined) the Potency was inconclusive: 100 µM [inhibitor, partial curve, poor fit].
Cc1cccc(C)c1NC(=O)CNC(=O)c1ccc2nc[nH]c2c1 was tested, and the Potency was inconclusive: 35.5 µM [inhibitor, full curve].
COc1ccc2c(COC(=O)CC3Sc4ccccc4NC3=O)cc(=O)oc2c1 (centres undefined) was tested, and the Potency was active: 20 µM.
For COc1cc(/C=N/NC(=O)/C(=C\c2ccc3c(c2)OCO3)NC(=O)c2ccccc2)ccc1O, the Potency was inconclusive: 31.6 µM [inhibitor, single point].
In the case of c1csc(Cc2nn3c(-c4n[nH]c5c4CCC5)nnc3s2)c1, the Potency is reported as active: 11.2 µM.
In the case of COc1cc(/C=C2\SC(c3ccccc3)=NC2=O)cc(Cl)c1O, the Potency is reported as inconclusive: 22.4 µM [inhibitor, partial curve, poor fit].
In the case of CS(=O)(=O)Nc1ccc(-c2ccc(/C=C3\SC(N)=NC3=O)o2)cc1, the Potency is reported as inconclusive: 35.5 µM [inhibitor, single point].
With CCCn1c(=O)c2sccc2n2c(CCCC(=O)NC3CCC(C)CC3)nnc12 (centres undefined) the “activity change, negative = inhibition” value was inactive: -18.8%.
In the case of O=C(CCCN1C(=O)c2ccccc2C1=O)Nc1sc2c(c1C(=O)NCc1ccco1)CCC2, the “activity change, negative = inhibition” value is reported as inactive: -2.84%.
For COc1cccc(CC2(CO)CCCN(Cc3[nH]c4ccc(C)cc4c3C)C2)c1 (centres undefined), the Potency was inconclusive: 70.8 µM [inhibitor, partial curve, poor fit].
With O=C(OCc1cn([C@@H]2CN(Cc3cccs3)[C@@H](c3ccccc3)C[C@H]2O)nn1)c1ccccc1 the Potency was inconclusive: 79.4 µM [inhibitor, partial curve, poor fit].
With CCCCN(C)CC(O)Cn1cc(/C=C/C(=O)c2ccc(C)cc2)c2ccccc21 (centres undefined) the Potency was inconclusive: 89.1 µM [inhibitor, partial curve, poor fit].
In the case of O=c1c2ccccc2c(C=Nc2cccc(S(=O)(=O)NC3=NCCCCC3)c2)c(O)n1Cc1ccccc1, the Potency is reported as inconclusive: 100 µM [inhibitor, partial curve, poor fit].
For O=C(Nc1ccc(C(=O)OCc2cc(=O)n3c4c(sc3n2)CCCC4)cc1)c1ccc(Cl)cc1, the “activity change, negative = inhibition” value was inactive: -16.4%.
For COc1cc2c(cc1OC)-c1cc(Nc3ccc(C(=O)O)cc3)nc(=O)n1CC2, the Potency was active: 35.5 µM.
With N#CCC(=O)Nc1ccc(C(=O)OCC(=O)N=c2sccn2Cc2ccccc2Cl)cc1 the Potency was inconclusive: 39.8 µM [inhibitor, partial curve, poor fit].
For COc1cc2ccccc2cc1C(=O)Nc1ccc2oc(-c3ccc(Cl)cc3)nc2c1, the Potency was inconclusive: 89.1 µM [inhibitor, partial curve].
With COC(=O)c1ccc(NC(=O)Cn2c(=O)nc(-c3ccccc3)c3ccccc32)cc1 the “activity change, negative = inhibition” value was inactive: -11.5%.
In the case of N#Cc1c(-c2ccccc2)nc(SCC(=O)N2c3ccccc3Sc3ccccc32)[nH]c1=O, the Potency is reported as active: 39.8 µM.
With O=C(CSc1nc2ccccc2n1CCc1ccccc1)c1ccc(O)c(O)c1 the Potency was active: 3.16 µM.
O=C(COC(=O)c1cnccn1)c1ccc(OC(=O)c2ccccc2)cc1 was tested, and the Potency was inconclusive: 20 µM [inhibitor, partial curve, poor fit].
In the case of COc1cc2[nH]c(=S)nc(NCc3cccc(Cl)c3)c2cc1OC, the Potency is reported as inconclusive: 39.8 µM [inhibitor, single point].
In the case of Cc1cccc(Cn2c(=O)n(Cc3ccc4c(c3)OCO4)c(=O)c3oc4ccccc4c32)c1, the “activity change, negative = inhibition” value is reported as inactive: -13.7%.
In the case of O=C(N/N=C/c1ccncc1)c1ccc(NC(=O)c2cccc(Cl)c2)cc1, the Potency is reported as inconclusive: 79.4 µM [inhibitor, partial curve, poor fit].
For CCN1CCN(Cc2ccc(NC(=O)c3ccc(C)c(NC(=O)c4nccnc4N)c3)cc2C(F)(F)F)CC1, the “activity change, negative = inhibition” value was inactive: -5.78%.
For O=C(Nc1cccc(S(=O)(=O)Nc2ccccc2F)c1)c1ccco1, the “activity change, negative = inhibition” value was inactive: -15.2%.
For COc1ccccc1C(=O)NC(=S)Nc1ccccc1N1CCCCC1, the Potency was inconclusive: 89.1 µM [inhibitor, partial curve, poor fit].
CCc1nn2c(=O)cc(COc3cccc(NC(=O)c4ccco4)c3)nc2s1 was tested, and the Potency was inconclusive: 15.8 µM [inhibitor, full curve].
In the case of CCCn1nc([N+](=O)[O-])c(C(C#N)c2nc3ccccc3s2)c(Cl)c1=O (centres undefined), the Potency is reported as inconclusive: 89.1 µM [inhibitor, partial curve].
For O=C(O)c1ccc2c(c1)C(=O)N(Cc1ccco1)C2=O, the Potency was inconclusive: 17.8 µM [inhibitor, partial curve, poor fit].
Nc1nonc1C(=O)NCCNCc1cccc(Cl)c1Cl was tested, and the “activity change, negative = inhibition” value was inactive: -15.6%.
For CCOC(=O)N1CCN(c2c(NCc3ccc(F)cc3)c(=O)c2=O)CC1, the Potency was inconclusive: 112 µM [inhibitor, partial curve, poor fit].
For O=C(CSc1nc2c([nH]c3ccccc32)c(=O)n1-c1ccccc1)N1CCOCC1, the Potency was “inactive”.
With O=c1[nH]c(CN2CCCCC2)ccc1O the Potency was inconclusive: 15.8 µM [inhibitor, full curve, poor fit].
In the case of CC1=NN(C(=O)COc2ccc(C)c(C)c2)C(O)(c2ccc(Cl)cc2)C1 (centres undefined), the Potency is reported as inconclusive: 89.1 µM [inhibitor, partial curve, poor fit].
For CSc1ccc(/C=C/c2cc(=O)c3ccccc3[nH]2)cc1, the Potency was inconclusive: 39.8 µM [inhibitor, single point].
With CCN(CCCNC(=O)c1cc(Nc2ccc(OC)cc2OC)nc2ccccc12)c1cccc(C)c1 the “activity change, negative = inhibition” value was inactive: -17%.
For Cc1c(C(=O)Nc2ccccn2)oc2ccc(Br)cc12, the Potency was active: 39.8 µM.
With O=C(O)C(Cc1ccccc1)N1C(=O)/C(=C/C=C/c2ccco2)SC1=S (centres undefined) the Potency was active: 1.41 µM.
For COC1=CC(=O)C(C2CC(=O)c3c(O)cc(O)cc3O2)=CC1=O (centres undefined), the Potency was inconclusive: 14.1 µM [inhibitor, full curve, poor fit].

— PubChem BioAssay AID588591 (National Center for Advancing Translational Sciences (NCATS), 2011)
% is scaled to controls: 0 for no effect and ±100 for the full control effect; potency is read from the fitted curve at half-maximal effect; tags tell the direction and shape of the fitted curve.
